{"source": "patent US20170043031A1", "about": "“IGF-1R ANTIBODY-DRUG-CONJUGATE AND ITS USE FOR THE TREATMENT OF CANCER” (PIERRE FABRE MEDICAMENT, priority 2014, published 2017)", "molecules": {"B1": {"name": "c208F2: chimeric 208F2 antibody, heavy chain SEQ ID No. 23, light chain SEQ ID No. 28 (antibody)", "heavy": "QVQLQQSGPELVKPGASVKMSCKASGYTFTSYYIYWVKQRPGQGLEWLGWIWPGDGSTKYNEKFKDKTTLTADKSSNTAYMFLSSLTSEDSAVYFCASPMITPNYAMDYWGQGASVTVSSASTKGPSVFPLAPSSKSTSGGTAALGCLVKDYFPEPVTVSWNSGALTSGVHTFPAVLQSSGLYSLSSVVTVPSSSLGTQTYICNVNHKPSNTKVDKRV[human IgG1 Fc not written out]", "light": "DIQMTQTTSSLSASLGDRVTISCRASQDISKYLNWYQQQPDGTIKLLIYYTSRLHSGVPSRFSGRGSGTDYSLTISNVEQEDIATYFCQQGSTLPYTFGGGTKLEIKRTVAAPSVFIFPPSDEQLKSGTASVVCLLNNFYPREAKVQWKVDNALQSGNSQESVTEQDSKDSTYSLSSTLTLSKADYEKHKVYACEVTHQGLSSPVTKSFNRGEC", "modifications": "c208F2, heavy chain, full length; c208F2, light chain, full length"}}, "target": "T1, soluble recombinant human IGF-1R (Homo sapiens, UniProt P08069)", "T1 construct": "composed of 2α chains and the extracellular domains of 2β chains; purchased R&D Systems 305-GR-50", "test": "Biacore X100 single cycle kinetics, around 600 RU captured h-IGF-1R (Example 13)", "format": "binding", "details": "1:1 model, FIG. 18 sensorgramme", "method": "The dissociation constants (KD) of the binding of the antibodies on a recombinant soluble human-IGF-1R were defined by the ratio between the dissociation rate (koff) and the association rate (kon). The kinetic experiments were run on a Biacore X100 device using a CM5 sensor chip activated by a mouse anti-Tag His monoclonal antibody. Around 12000 RU of antibodies are chemically grafted on the carboxymethyldextan matrix using the amine kit chemistry.\nThe experiments were carried out at 25° C. with a flow rate of 30 μl/min using the HBS-EP+ buffer (GE Healthcare) as the running and sample dilution buffer.\nThe single cycle kinetic scheme was used to define the kinetic parameters of the binding of the anti-IGF-1R antibodies on a soluble recombinant human IGF-1R captured by its two C-terminal 10 Histidine-tag. • 1—A solution of a soluble recombinant version of the human IGF-1R hetero-tetramere: 2α chains and the extracellular domains of 2β chains expressed with an additional C-terminal 10-His tag (R&D Systems catalogue number 305-GR-50) was injected during one minute on the second flowcell at a concentration of 10 μg/ml. A mean of 587 RU (with a standard deviation 24 RU) of the soluble receptor were captured at each of the 24 cycles realised for this study. • 2—After the capture phase, either the running buffer was injected 5 times (90 s each injection) or a growing range of 5 concentrations of one of the six antibodies was injected (90 s each injection) on both flowcells. […]\nThe resulting sensorgrams were analysed by the Biaevaluation software with a 1:1 model. […]\nFor the 6 antibodies tested in this experiment the experimental data fitted well with an 1:1 model with significant koff values when the higher concentration was defined as a constant and the other four concentrations are calculated (see FIG. 18).\nThe dissociation constants (KD) calculated as the ratio: kof/kon and the half-live of the complexes calculated as the ratio: Ln(2)/koff are represented in the FIGS. 19 and 20. […]", "data": [{"molecule": "B1", "values": [{"measurement": "Rmax", "value": "307.6±0.3", "unit": "RU"}, {"measurement": "koff", "value": "(7.81±0.18)×10^−5 s^−1"}, {"measurement": "kon", "value": "(1.206±0.036)×10^6 M^−1·s^−1"}]}]}
